{
  "source": "PubChem BioAssay AID588591",
  "about": "(National Center for Advancing Translational Sciences (NCATS), 2011)",
  "note": "Out of some 390,000 compounds screened, about 4,700 (1.2%) were called active. Inconclusive means that the source gave no clear call. Such entries were picked first, then a sample of the others. The call rests on the fitted dose curve; in most records, active means well fitted inhibition curve with a large enough effect; inconclusive means small, poorly fitted or top-dose-only effect, or another doubt; inactive means no such curve, though single readings can be large or run the other way. Where the call is inconclusive, the potency comes from a doubtful curve fit. On the % scale 0 is the no-effect control and ±100 the full control effect; potency means the concentration at half of the fitted maximal effect; tags describe the fitted curve by direction and shape.",
  "data": [
    {"biological_target": "DNA polymerase eta (Homo sapiens) (UniProt Q9Y253)", "sequence (Q9Y253 whole entry, looked up)": "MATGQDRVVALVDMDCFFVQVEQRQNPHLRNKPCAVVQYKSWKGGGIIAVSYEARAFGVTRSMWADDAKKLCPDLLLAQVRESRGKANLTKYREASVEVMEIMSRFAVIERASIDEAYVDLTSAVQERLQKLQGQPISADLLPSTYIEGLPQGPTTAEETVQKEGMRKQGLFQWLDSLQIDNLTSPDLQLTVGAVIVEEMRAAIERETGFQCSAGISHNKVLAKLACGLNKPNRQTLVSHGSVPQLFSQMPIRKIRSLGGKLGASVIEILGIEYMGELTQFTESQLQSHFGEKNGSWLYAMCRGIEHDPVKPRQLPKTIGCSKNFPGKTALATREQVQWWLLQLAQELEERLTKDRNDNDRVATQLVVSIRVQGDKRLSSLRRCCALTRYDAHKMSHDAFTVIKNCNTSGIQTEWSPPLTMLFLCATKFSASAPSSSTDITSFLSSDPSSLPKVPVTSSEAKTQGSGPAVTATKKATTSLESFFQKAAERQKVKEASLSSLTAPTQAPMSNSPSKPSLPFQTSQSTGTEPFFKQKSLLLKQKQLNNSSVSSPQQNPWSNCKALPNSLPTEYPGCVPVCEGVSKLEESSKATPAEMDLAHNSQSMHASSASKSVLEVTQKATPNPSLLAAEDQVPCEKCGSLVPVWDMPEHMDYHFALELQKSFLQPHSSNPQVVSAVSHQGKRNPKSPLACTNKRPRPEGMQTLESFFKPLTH", "test": "qHTS for Inhibitors of Polymerase Eta", "settings": "recombinant Pol eta, fluorescent DNA replication assay; series mostly up to 114 µM; activity change, negative = inhibition: at the top concentration", "outline": "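Pol eta (10 nM) was preincubated with compounds for 15 min at room temperature, after which fluorescent replication substrate (50 nM final) was added to start the reaction. Fluorescence was read kinetically at 0 and 10 min.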", "values": [
      {"smiles": "N#C/C(=C\\c1ccc(-c2ccc(C(=O)O)cc2)o1)c1nc2ccccc2[nH]1", "Potency": "active: 28.2 µM"},
      {"smiles": "O=C(Nc1nc2ccccc2s1)C1CCN(S(=O)(=O)c2cc([N+](=O)[O-])ccc2Cl)CC1", "Potency": "active: 39.8 µM"},
      {"smiles": "COc1ccc(-c2csc(C3=C(O)CN(Cc4ccc(S(N)(=O)=O)cc4)C3=N)n2)cc1OC", "Potency": "inconclusive: 20 µM [inhibitor, partial curve, poor fit]"},
      {"smiles": "CC[C@]12c3[nH]c4cc(-c5ccco5)ccc4c3CCN1C(=O)[C@@H](CC(=O)NCC13CC4CC(CC(C4)C1)C3)C[C@@H]2C(=O)N1CCN(C(=O)c2ccco2)CC1", "activity change, negative = inhibition": "inactive: -13.4%"},
      {"smiles": "Cc1cccc(CN2CCN(C(=O)c3cccc4ccccc34)CC2)c1", "Potency": "inconclusive: 63.1 µM [inhibitor, partial curve, poor fit]"},
      {"smiles": "CCOc1ccc2oc(C(=O)Nc3nccs3)c(C)c2c1", "Potency": "active: 22.4 µM"},
      {"smiles": "N#C/C(=C\\c1ccc(-c2ccccc2Cl)o1)C(=O)Nc1nc2ccccc2s1", "Potency": "inconclusive: 3.16 µM [inhibitor, full curve, poor fit]"},
      {"smiles": "N#CCC(=O)Nc1ccc(C(=O)OCC(=O)N2CCN(C(=O)c3ccco3)CC2)cc1", "Potency": "inconclusive: 17.8 µM [inhibitor, full curve, poor fit]"},
      {"smiles": "CC(=O)Nc1cc(NC(C)=O)cc(C(=O)NCC2(N3CCOCC3)CCCCC2)c1", "Potency": "inconclusive: 15.8 µM [inhibitor, full curve, poor fit]"},
      {"smiles": "CC(=O)c1ccc(Sc2nnnn2-c2ccccc2)c([N+](=O)[O-])c1", "Potency": "inconclusive: 31.6 µM [inhibitor, single point]"},
      {"smiles": "O=C(/C=C/c1ccccc1F)c1ccoc1", "Potency": "inconclusive: 22.4 µM [inhibitor, partial curve, poor fit]"},
      {"smiles": "O=C(O)c1ccc2nc(-c3ccco3)c(-c3ccco3)nc2c1", "Potency": "active: 3.55 µM"},
      {"smiles": "O=C(O)Cc1ccc(NC(=O)c2ccc(NC(=O)c3ccco3)cc2)cc1", "Potency": "active: 25.1 µM"},
      {"smiles": "Oc1cccc(Nc2nc(-c3ccccc3Cl)nc3ccccc23)c1", "Potency": "inconclusive: 44.7 µM [inhibitor, partial curve, poor fit]"},
      {"smiles": "CC1(C)C(/C=C/C=C/C=C/C=C2\\N(CCCCS(=O)(=O)O)c3ccc4ccccc4c3C2(C)C)=[N+](CCCCS(=O)(=O)[O-])c2ccc3ccccc3c21", "Potency": "active: 7.08 µM"},
      {"smiles": "COc1ccc(CCNC(=O)CCn2c(=O)c3ccccc3n(Cc3ccccc3C)c2=O)cc1OC", "activity change, negative = inhibition": "inactive: -9.58%"},
      {"smiles": "Cc1ccc2nc(NC(=O)C3CCN(S(=O)(=O)c4cc([N+](=O)[O-])ccc4Cl)CC3)sc2c1", "Potency": "inconclusive: 10 µM [inhibitor, full curve, poor fit]"},
      {"smiles": "COc1ccc(S(=O)(=O)N2CCN(C(=O)/C=C/c3ccco3)CC2)cc1", "Potency": "active: 50.1 µM"},
      {"smiles": "CCSc1nnc(SCC(=O)Nc2cc(C)on2)s1", "Potency": "inconclusive: 79.4 µM [inhibitor, partial curve]"},
      {"smiles": "N#C/C(=C(\\O)Cc1ccccc1)c1nc2ccccc2[nH]1", "Potency": "inconclusive: 28.2 µM [inhibitor, single point]"},
      {"smiles": "COc1ccc(S(=O)(=O)N(C)C[C@H]2Oc3ccc(NC(=O)Nc4ccc(C(F)(F)F)cc4)cc3C(=O)N([C@H](C)CO)C[C@@H]2C)cc1", "Potency": "inconclusive: 89.1 µM [inhibitor, partial curve, poor fit]"},
      {"smiles": "O=c1cc(-c2ccccc2)nc2c(-c3ccccc3)c(C(F)(F)F)[nH]n12", "Potency": "inconclusive: 89.1 µM [inhibitor, single point]"},
      {"smiles": "O=C(O)c1ccc(N=NNc2cccc([N+](=O)[O-])c2)cc1", "activity change, negative = inhibition": "inactive: -12.1%"},
      {"smiles": "CC(=O)c1ccc(S(=O)(=O)N2CCN(C(C)=O)CC2)cc1", "Potency": "active: 22.4 µM"},
      {"smiles": "CC(C)(C)NC(=O)NC(=O)COC(=O)c1cccc(OC(F)F)c1", "activity change, negative = inhibition": "inactive: -3.43%"},
      {"smiles": "CCn1c(C)cc(/C=C2\\NC(=O)N(CC(=O)Nc3cccc(C)c3)C2=O)c1C", "activity change, negative = inhibition": "inactive: 3.84%"},
      {"smiles": "O=C(NCCCc1nc2ccccc2n1Cc1ccccc1F)c1ccco1", "activity change, negative = inhibition": "inactive: -8.28%"},
      {"smiles": "Cc1ccc(C(O)(COC(=O)C(C)C)COC(=O)C(C)C)c(O)c1", "Potency": "inconclusive: 39.8 µM [inhibitor, partial curve, poor fit]"},
      {"smiles": "O=C1CC(=O)N(Cc2ccco2)C(=S)N1", "Potency": "active: 3.16 µM"},
      {"smiles": "O=C(CCCn1c(=O)c2ccccc2n(Cc2cccc(F)c2)c1=O)NCc1ccccc1Cl", "activity change, negative = inhibition": "inactive: -10.1%"},
      {"smiles": "O=C(CCC(=O)N1CCCC1)Nc1ccc(Cl)c(Cl)c1", "activity change, negative = inhibition": "inactive: 4.69%"},
      {"smiles": "C[C@@H](NC(=O)c1ncn2c1c(=O)[nH]c1ccc(Br)cc12)c1ccccc1", "Potency": "inconclusive: 15.8 µM [inhibitor, partial curve]"},
      {"smiles": "COc1cc2c3nnc(-c4ccccc4)c-3cn(Cc3ccc(F)cc3)c2cc1OC", "Potency": "inconclusive: 14.1 µM [inhibitor, full curve, poor fit]"},
      {"smiles": "Cc1ccc(-c2csc(/C(C#N)=C(\\O)CN3CCN(C(=O)c4ccco4)CC3)n2)cc1", "Potency": "active: 22.4 µM"},
      {"smiles": "COc1ccc2nc(-c3ccccc3)cc(C(=O)OCC(=O)N3CCCCC3)c2c1", "Potency": "inconclusive: 39.8 µM [inhibitor, partial curve]"},
      {"smiles": "Cc1ccc2c(=O)cc(C(=O)Nc3nc4ccc(Cl)cc4s3)oc2c1", "activity change, negative = inhibition": "inactive: 1.95%"},
      {"smiles": "Cc1nn(CC(=O)NC2C(=O)N3C(C(=O)O)=C(CSc4nnnn4C)CSC23)cc1Br", "note": "(stereo unspecified)", "Potency": "inconclusive: 79.4 µM [inhibitor, partial curve]"},
      {"smiles": "CCc1ccc(N2CC(C(=O)OCc3nc4ccsc4c(=O)[nH]3)CC2=O)cc1", "note": "(stereo unspecified)", "Potency": "active: 39.8 µM"},
      {"smiles": "COc1ccc2c(Sc3ccccc3)c(C(=O)NCc3cc(Br)ccc3OC)[nH]c2c1", "activity change, negative = inhibition": "inactive: -7.45%"},
      {"smiles": "CC1CCCN(c2nc(-c3cccnc3)nc3scc(-c4ccccc4)c23)C1", "note": "(stereo unspecified)", "Potency": "inconclusive: 28.2 µM [inhibitor, partial curve, poor fit]"},
      {"smiles": "CC(=O)Nc1ccc(N2C(=O)c3cccc4c(O)ccc(c34)C2=O)cc1", "Potency": "active: 31.6 µM"},
      {"smiles": "Cc1ccc(SC2=C(Sc3ccc(C)cc3)C(=O)c3ccccc3C2=O)cc1", "Potency": "active: 17.8 µM"},
      {"smiles": "CCN(CC)CC(=O)Nc1sc2c(c1C(=O)c1ccccc1OC)CCC2", "Potency": "inconclusive: 35.5 µM [inhibitor, single point]"},
      {"smiles": "CC1Cc2nc(SCC(=O)Nc3nccs3)n(C)c(=O)c2S1", "note": "(stereo unspecified)", "Potency": "inconclusive: 35.5 µM [inhibitor, partial curve, poor fit]"},
      {"smiles": "Cc1ccc(CNC(=O)C(C)n2c(=O)cc(-c3ccccc3)c3c(C)nn(C)c32)cc1", "note": "(stereo unspecified)", "activity change, negative = inhibition": "inactive: -24.2%"},
      {"smiles": "Cc1cccc(C(=O)Nc2ccc(C(=O)/C=C/c3cccnc3)cc2)c1", "Potency": "inconclusive: 14.1 µM [inhibitor, partial curve]"},
      {"smiles": "COc1ccc(S(=O)(=O)N2CCC(C(=O)N[C@@H](C)C(=O)NCc3ccccc3OC)CC2)cc1", "activity change, negative = inhibition": "inactive: -17.7%"},
      {"smiles": "COc1ccc(-n2nc(C(=O)NCC(=O)Nc3ccccn3)c3ccccc3c2=O)cc1Cl", "Potency": "active: 10 µM"},
      {"smiles": "Nc1cccc(-c2csc(-n3ncc(C(=O)O)c3C(F)(F)F)n2)c1", "Potency": "inconclusive: 56.2 µM [inhibitor, partial curve, poor fit]"},
      {"smiles": "COc1ccc(Cl)cc1S(=O)(=O)N1CCN(C(=O)c2cc(-c3ccc(Br)cc3)n[nH]2)CC1", "activity change, negative = inhibition": "inactive: -8.12%"},
      {"smiles": "Cc1ccc(C(=O)N[C@H](C(=O)OCc2cc(=O)n3c(n2)sc2ccccc23)C(C)C)cc1", "Potency": "inconclusive: 2.82 µM [inhibitor, full curve, poor fit]"},
      {"smiles": "CC(C)CNC1=CC(=O)CC(c2ccco2)C1", "note": "(stereo unspecified)", "Potency": "inconclusive: 14.1 µM [inhibitor, full curve, poor fit]"},
      {"smiles": "CCc1cc2cccc(C)c2nc1SCC(=O)N1CCN(C(=O)c2ccco2)CC1", "Potency": "inconclusive: 35.5 µM [inhibitor, partial curve, poor fit]"},
      {"smiles": "Cc1[nH]nc(-c2cccnc2)c1N=NN(C)C", "Potency": "inconclusive: 22.4 µM [inhibitor, partial curve, poor fit]"},
      {"smiles": "Nc1ccccc1Sc1ccc(C(=O)c2ccccc2C(=O)O)cc1[N+](=O)[O-]", "Potency": "inconclusive: 28.2 µM [inhibitor, single point]"},
      {"smiles": "COc1cc(N2Cc3ccccc3C2)ccc1C=O", "Potency": "inconclusive: 70.8 µM [inhibitor, partial curve, poor fit]"},
      {"smiles": "O=C1c2cccc([N+](=O)[O-])c2C(=O)N1CCO", "activity change, negative = inhibition": "inactive: 14.1%"},
      {"smiles": "Cc1cc2c(cc1Cl)N(C(=O)Nc1ccnc3ccccc13)CC2", "activity change, negative = inhibition": "inactive: 2.31% [at 57.1 µM]"},
      {"smiles": "Cc1cccc(N2CC(C(=O)Nc3nnc(SCc4ccccn4)s3)CC2=O)c1", "note": "(stereo unspecified)", "Potency": "active: 39.8 µM"},
      {"smiles": "COc1cc(/C=N/NC(=O)c2cc(-c3ccc4c(c3)OCO4)n[nH]2)ccc1O", "Potency": "inconclusive: 10 µM [inhibitor, partial curve]"},
      {"smiles": "COc1ccc(CNC(=O)c2ccc(-c3nc(CS(=O)c4ccc(C)cc4)c(C)o3)cc2)cc1", "note": "(stereo unspecified)", "Potency": "inconclusive: 79.4 µM [inhibitor, partial curve]"},
      {"smiles": "COc1ccc(S(=O)(=O)N(C)C[C@H]2Oc3ccc(NC(=O)C4CCCCC4)cc3C(=O)N([C@H](C)CO)C[C@@H]2C)cc1", "Potency": "inconclusive: 79.4 µM [inhibitor, partial curve, poor fit]"},
      {"smiles": "CCc1c(C)nc2nc(-c3ccccc3)nn2c1NCc1ccc(C)cc1", "activity change, negative = inhibition": "inactive: -6.43%"},
      {"smiles": "C=CCN(CC=C)S(=O)(=O)c1ncn[nH]1", "Potency": "active: 8.91 µM"},
      {"smiles": "O=C(C1=C[C@@H](C2CCCCC2)C[C@@H](OCCCCO)O1)N1CCN(Cc2ccc3c(c2)OCO3)CC1", "Potency": "inconclusive: 100 µM [inhibitor, partial curve, poor fit]"},
      {"smiles": "COc1ccccc1NC(=O)CSc1nc2sc(C)c(C)c2c(=O)n1Cc1ccco1", "Potency": "inconclusive: 31.6 µM [inhibitor, single point]"}
    ]}
  ]
}
